Out of some 43,000 compounds screened, about 200 (0.47%) were called active. Another 12% or so got no clear call; they are omitted. Calls follow the shape of the dose curve; as a rule, active = well fitted cell-killing curve with a large enough effect; inconclusive = small, poorly fitted or top-dose-only effect, or effect the other way; inactive = flat fitted curve, though single readings scatter. This is one part of the list.
assay: Cell viability qHTS assay in S16 Pmp22-F2sN cells; conditions: S16 Pmp22-F2sN Schwann cells viability, CellTiter-Glo, 24 h; series mostly up to 57.5 µM; activity change, negative = cytotoxicity: at the top concentration; also: nearly all actives have a fitted effect of over 65% in size
Procedure, shortened: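 S16 Pmp22-F2sN Schwann cells (500-1,000/well) in phenol-red-free DMEM with 10% FBS received 23 nL compound by pin tool for 24 h at 37 °C. Viability was then read as CellTiter-Glo luminescence after 15 min at room temperature.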
% is scaled to controls: 0 for no effect and ±100 for the full control effect.

SMILES	activity change, negative = cytotoxicity
COc1ccc(-c2nc(CN3CCC(C(=O)NCc4ccc(C)cc4)CC3)c(C)o2)cc1OC	inactive: 6.36%
CC(=O)N1CCCc2cc(S(=O)(=O)N3CCC(C(=O)Nc4c(C)cccc4C)CC3)ccc21	inactive: -1.27%
COc1ccc(CCNC(=O)C(=O)NCC(c2cccs2)S(=O)(=O)c2cccs2)cc1 (centres undefined)	inactive: -2.68%
CCOc1ccccc1Nc1nc2ccccc2nc1NS(=O)(=O)c1ccc(Cl)cc1	inactive: 6.33%
COc1ccc(C(=O)n2nc(-c3cccnc3)nc2NCc2ccccc2)cc1OC	inactive: -11.1%
Cc1ccc(Sc2ccc(N3CCCC(C(=O)Nc4ccc(F)cc4)C3)nn2)cc1 (centres undefined)	inactive: 2.04%
CCN(CC)C(=O)CSc1nc2cc3c(cc2c(=O)n1CCCC(=O)NCc1ccc2c(c1)OCO2)OCO3	inactive: -8.46%
COc1ccc(-c2cn3c(n2)sc2cc(C(=O)NCCCc4ccccc4)ccc23)cc1	inactive: 12.2%
O=C(Cn1nc(N2CCN(c3ccccc3)CC2)ccc1=O)NCc1ccccc1F	inactive: 18.8%
COc1cccc2c1cc1c(=O)n(CC(=O)N3CCN(c4ccc(F)cc4)CC3)nc(C)n12	inactive: 4.84%
COc1ccc2nc(SCC(O)c3cccc(Br)c3)[nH]c2c1 (centres undefined)	inactive: -1.39%
CCCS(=O)(=O)c1nc(S(=O)(=O)c2ccc(C)cc2)c(NCCCOC(C)C)s1	inactive: -12.4%
Cn1c(=O)c2c(nc(NCCc3ccccc3)n2Cc2ccccc2Br)n(C)c1=O	inactive: 9.8%
CCOc1ccc(C(=O)N(Cc2nc(-c3cccc(C)c3)no2)C(C)C)cc1	inactive: 0.362%
CCOc1ccc(NC(=O)c2cn(C3CCCCC3)c(=O)c3c2c2ccccc2n3C)cc1	inactive: -0.0338%
Cc1cccc(C(=O)Nc2ccccc2OCc2cc(=O)n3ccccc3n2)c1	inactive: 15.7%
Cc1ccc(-c2nnc(SCC(=O)NC(C)(C)C)nc2-c2ccc(C)cc2)cc1	inactive: 1.53%
Cc1nnsc1C(=O)Oc1ccc(C#N)cc1	inactive: -1.31%
O=C(CN1C(=O)C2(SCC(=O)N2c2cccc(F)c2)c2ccccc21)NCc1ccccc1Cl (centres undefined)	inactive: -17.6%
Clc1ccc(CN2CCc3nc(N4CCN(c5ccccn5)CC4)ncc3C2)cc1	inactive: 16.9%

SMILES	activity change, negative = cytotoxicity
CCOC(=O)c1ccc(Oc2nc(C)nc3c2oc2ccccc23)cc1	inactive: 6.41%
CC(C)(C)c1ccc(S(=O)(=O)c2cnc(SCC(=O)Nc3ccc4c(c3)OCCO4)[nH]c2=O)cc1	inactive: -2.33%
CC(C)CC(=O)NCC(c1ccc2c(c1)OCO2)N1CCN(c2ccc(F)cc2)CC1 (centres undefined)	inactive: 0.0038%
Cc1ccc(-n2ncc(C(=O)NCc3ccccn3)c2C2CCN(C(=O)OC(C)(C)C)CC2)cc1C	inactive: -24.1%
Cc1ccc(NC(=O)CSc2nc3ccccc3nc2Cc2ccccc2)c(Cl)c1	inactive: 2.25%
Cc1nnc2c3ccccc3nc(Nc3ccccc3C(=O)O)n12	inactive: -3.16%
CCn1ccc2cc(S(=O)(=O)N3CCC(C(=O)NCC(C)c4ccccc4)CC3)ccc21 (centres undefined)	inactive: -1.34%
CCOc1ccc(S(=O)(=O)NCc2ccc3c(c2)CCN3C(=O)c2ccc(C)cc2)cc1	inactive: -10%
O=C(COc1ccc(Cl)cc1)Nc1ccc2nc(SCC(=O)N3CCOCC3)sc2c1	inactive: 8.44%
Cc1ccc(CN2c3ccccc3-c3nc(SCC(=O)NCCc4ccccc4)ncc3S2(=O)=O)cc1	inactive: 2.17%
CCN(CC)CCNC(=O)c1ccc(-c2nc(CN3CCc4ccccc43)c(C)o2)cc1	inactive: -22.3%
CCOC(=O)c1cccc(NC(=O)CSc2cc(=O)n(C)c3ccccc23)c1	inactive: -3.05%
CC(=O)N1CCCc2cc(S(=O)(=O)NCc3ccccc3Cl)ccc21	inactive: -26.3%
CCN1CCC(N(Cc2ccc3c(c2)OCO3)C(=O)Nc2cccc(C)c2C)CC1	inactive: 0.908%
COc1ccc(Nc2ncc3c(n2)CCN(Cc2cccc(F)c2F)C3)c(OC)c1	inactive: 3.22%
Cc1ccc(S(=O)(=O)c2nnn3c2nc(N2CCCC(C)C2)c2cc(Cl)ccc23)cc1C (centres undefined)	inactive: -2.35%
Oc1c(C(c2ccccc2Cl)N2CCC(O)CC2)sc2nc(-c3ccco3)nn12 (centres undefined)	inactive: 11.6%
CCN(C(=O)Cn1cc(S(=O)(=O)N2CCN(c3ccccc3F)CC2)c2ccccc2c1=O)c1ccc(C)c(C)c1	inactive: 5.49%
Cc1ccc(NC(=O)Cn2c(=O)n(-c3ccccc3)c(=O)c3ccc(C(=O)NCc4ccc5c(c4)OCO5)cc32)cc1	inactive: -3.83%
Cc1ccc(C)c(NC(=O)c2cc(S(=O)(=O)N3CCN(c4cccc(Cl)c4)CC3)ccc2F)c1	inactive: 0.672%

SMILES	activity change, negative = cytotoxicity
CCN(Cc1ccccc1)C(=O)C1CCC(CNS(=O)(=O)c2ccc3c(c2)CCCC(=O)N3)CC1 (centres undefined)	inactive: -2.9%
CCc1ccc(NC(=O)c2sc(-n3nc(C)c(Cc4ccc5c(c4)OCO5)c3C)nc2C)cc1	inactive: 2.8%
Cc1ccc2oc(C(=O)Nc3ccc(S(=O)(=O)N4CCCCCC4)cc3)cc(=O)c2c1	inactive: 4.29%
COc1ccccc1NC(=O)Cn1nc2c3cc(F)ccc3n(Cc3cccc(C)c3)cc-2c1=O	inactive: -0.339%
CCOc1ccccc1NC(=O)Cn1c(=O)n(-c2ccc(C)c(C)c2)c(=O)c2oc3ccccc3c21	inactive: 3.34%
O=C(Oc1ccccc1F)c1nc(SCc2ccccc2F)ncc1Cl	inactive: 4.29%
CCOc1ccc(CNC(=O)c2cc(=O)[nH]c3ccc(S(=O)(=O)N4CCCCC4)cc23)cc1	inactive: -3.23%
Cc1cc(C)cc(Nc2cc(C(=O)NCCCN(Cc3ccccc3)C(C)C)c3ccccc3n2)c1	inactive: 4.28%
CC(C)OCCCNC(=O)CCCn1c(=O)[nH]c2ccsc2c1=O	inactive: 6.19%
Cc1ccc(CNC(=O)C2CCC(CNS(=O)(=O)c3ccc4c(c3)CCCC(=O)N4)CC2)cc1 (centres undefined)	inactive: 24.6%
Cc1cccc(-c2nc(CCNC(=O)c3ccco3)cs2)c1	inactive: -5.45%
CCOC(=O)c1ccc(NC(=O)CCS(=O)(=O)c2ccc(C)cc2)cc1	inactive: -11.8%
COc1ccc(N2CCN(S(=O)(=O)c3csc(C(N)=O)c3)CC2)cc1	inactive: -6.23%
Cc1cccc(C)c1OCCSc1nc2ccccc2n1CC(=O)O	inactive: 17.1%
O=C(Nc1cccc(-c2nc3ccccc3o2)c1)c1cc([N+](=O)[O-])ccc1N1CCOCC1	inactive: -14.5%
CC(=O)Nc1ccc(NS(=O)(=O)c2ccc3c(c2)CC(C)N3C(=O)C2CCC2)cc1 (centres undefined)	inactive: -29.2%
COc1ccc(-c2nc3c4cnn(-c5ccccc5F)c4ncn3n2)cc1	inactive: 6.57%
COC(=O)CC1Oc2ccc(F)cc2-n2cc(-c3ccc(Cl)cc3)nc21 (centres undefined)	inactive: 13%
CCOc1ccc(CNC(=O)c2ccc3c(c2)nc2n3CCOC2)cc1	inactive: 7.14%
